# Experimental data: PMC4336329 (PLoS ONE, 2015)
# Screen size: about 310,000 compounds; about 14,000 (4.5%) showed an effect of 50% or more. Effects have a minus sign here. The list shows a part of the results. Where a SMILES comes first, the peptide text is derived from it. [ ]: non-standard residue; d: D form. The star is where a group is joined. ξ: configuration not given here. ξF = NC(Cc1ccccc1)C(=O)O; Cbz = O=C(OCc1ccccc1)*
# Target: human ether-à-go-go-related gene (hERG) potassium channel (human, UniProt Q12809)
# Test: primary screen, population patch clamp on CHO cells stably expressing hERG
# 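Further: peak tail current of the secondary pulse compared with the same well before compound.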
# Sequence of human ether-à-go-go-related gene (hERG) potassium channel (Q12809 whole entry, looked up): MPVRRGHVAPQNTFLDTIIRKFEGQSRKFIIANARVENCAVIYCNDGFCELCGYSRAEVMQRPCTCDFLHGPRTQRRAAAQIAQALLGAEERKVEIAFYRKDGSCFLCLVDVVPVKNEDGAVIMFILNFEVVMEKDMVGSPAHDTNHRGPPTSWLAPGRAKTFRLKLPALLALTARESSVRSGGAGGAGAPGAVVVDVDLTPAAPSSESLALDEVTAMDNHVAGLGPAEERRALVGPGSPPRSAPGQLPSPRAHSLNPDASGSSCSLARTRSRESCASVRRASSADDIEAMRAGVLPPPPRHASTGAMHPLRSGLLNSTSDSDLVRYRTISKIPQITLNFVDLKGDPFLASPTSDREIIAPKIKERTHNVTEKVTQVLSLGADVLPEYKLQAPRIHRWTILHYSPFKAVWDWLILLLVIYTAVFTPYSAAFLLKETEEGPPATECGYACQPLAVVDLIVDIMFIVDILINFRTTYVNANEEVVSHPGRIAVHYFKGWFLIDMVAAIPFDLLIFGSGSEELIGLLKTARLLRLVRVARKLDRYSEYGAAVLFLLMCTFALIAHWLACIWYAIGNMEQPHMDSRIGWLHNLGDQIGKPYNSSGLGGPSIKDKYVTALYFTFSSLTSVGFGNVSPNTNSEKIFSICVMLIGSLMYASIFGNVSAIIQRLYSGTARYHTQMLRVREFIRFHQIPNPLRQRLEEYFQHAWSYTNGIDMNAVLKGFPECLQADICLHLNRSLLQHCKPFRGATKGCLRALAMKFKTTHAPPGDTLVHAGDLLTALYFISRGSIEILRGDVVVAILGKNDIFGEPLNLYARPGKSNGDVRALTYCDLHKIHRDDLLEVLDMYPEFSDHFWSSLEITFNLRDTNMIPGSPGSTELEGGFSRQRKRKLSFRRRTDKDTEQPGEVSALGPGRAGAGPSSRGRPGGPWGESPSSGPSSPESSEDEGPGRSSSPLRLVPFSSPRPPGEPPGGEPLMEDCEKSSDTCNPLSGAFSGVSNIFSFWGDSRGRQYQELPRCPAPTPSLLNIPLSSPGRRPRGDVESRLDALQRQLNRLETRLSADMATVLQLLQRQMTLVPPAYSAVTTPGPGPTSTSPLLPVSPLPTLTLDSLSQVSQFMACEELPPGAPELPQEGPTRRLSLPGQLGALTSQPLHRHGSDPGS
row,SMILES,"hERG current change (%, negative = inhibition) at 10uM [%]"
1,COCCSc1ncnc2c1oc1nc3c(cc12)COC(C)(C)C3,-5.46
2,O=C(Nc1ccccc1)N1CCN2C(=O)c3ccccc3C12c1ccccc1 (stereo not drawn),-20.8
3,Cc1cc(O)c(C(C)C)cc1C1(c2cc(C(C)C)c(O)cc2C)OC(=O)c2ccccc21,13.5
4,CC1CCN(C(=O)Cn2ncc3c([nH]c4ccccc43)c2=O)CC1,0.195
5,Cc1nn(C2CCS(=O)(=O)C2)c(Cl)c1/C=C/C(=O)OCC(=O)Nc1ccc2c(c1)OCO2 (stereo not drawn),7.01
6,CC(C)COC(=O)n1c(=O)oc2ccc(S(=O)(=O)N3CCCCC3)cc21,-13.9
7,Cc1cc(C)n2nc(C(=O)N/N=C/c3ccc(O)cc3)nc2n1,21.4
8,Cc1ccc(-n2ncc3c(=O)n(CC(=O)NC4CCCCC4)cnc32)cc1,20.4
9,Cc1c(Cl)cccc1NC(=O)CCNC(=O)N1CC(=O)Nc2ccccc21,18.3
10,Cc1cccc(/C=N/NC(=O)CNc2cccc3ccccc23)n1,-4.25
11,CC(=O)Cc1nsc(Nc2ccc3c(c2)OCCO3)n1,14.7
12,NC(=O)CCn1nc(-c2ccccc2)c2ccccc2c1=O,2.06
13,Cc1ccc(CSCC(=O)NCc2ccc(F)cc2)cc1,-17.6
14,O=C(CSCc1nc2scc(-c3cccs3)c2c(=O)[nH]1)Nc1ccccn1,1.3
15,CCOc1ccc(C(=O)c2cnc3ccccc3c2N2CCN(CC)CC2)cc1,-65.5
16,CCc1ccccc1NC(=O)CNC(=O)c1ccccc1OCc1c(C)noc1C,0.715
17,COc1cc(C(=O)NCc2ccc(-c3nc4ccccc4o3)cc2)cc(OC)c1OC,16.8
18,O=C(CSCc1c(F)cccc1Cl)NNC(=S)NC1CCCCC1,9.8
19,Cc1ccc(C(=O)C(C)OC(=O)CCN2C(=O)C3C4C=CC(C5CC45)C3C2=O)cc1 (stereo not drawn),-30.6
20,O=C(Nc1nnc(S(=O)(=O)N2CCCCCC2)s1)c1ccc(Cl)cc1,26.3
21,Nc1ccccc1NC1=CC(=O)CC(c2ccco2)C1 (stereo not drawn),10.4
22,CCOc1cccc2cc(C(=O)N3CCc4ccccc4C3)c(=O)oc12,-29.7

row,SMILES,"hERG current change (%, negative = inhibition) at 10uM [%]"
1,COCCN(C(=O)COC(=O)CCc1ccccc1OC)c1c(N)n(Cc2ccccc2)c(=O)[nH]c1=O,4.27
2,CCCc1cc(=O)oc2cc(C)cc(OCC(=O)NCc3cccnc3)c12,-44.4
3,CC(C)=CCN1CCN(Cc2nc(-c3ccccc3)cs2)CC1CCO (stereo not drawn),-60.4
4,CCOc1ccc(NC(=O)CN2CCN(C(=O)C3CCCO3)CC2)cc1 (stereo not drawn),-32.6
5,CCN(CC)c1cc(C)c2cc(NC(=O)c3ccc(Br)o3)ccc2n1,-76.1
6,N#Cc1c2c(c(NCCN3CCOCC3)n3c1nc1ccccc13)CCCC2,-38.8
7,CC(=O)c1ccc(NC(=O)CSc2ccc(-c3sc(C)nc3C)nn2)cc1,10.8
8,COc1cc(OC)c(C2=NOC(C(=O)N3CCCc4ccccc43)C2)cc1Cl (stereo not drawn),-0.528
9,COc1nccnc1NS(=O)(=O)c1ccc(N=Cc2c(C)[nH]n(-c3ccc(Cl)cc3)c2=O)cc1,29.7
10,O=C(NCc1ccco1)C1CCN(S(=O)(=O)c2cccc3cccnc23)CC1,-5.85
11,COCCN(C(=O)CC1OC(=O)c2ccccc21)c1c(N)n(Cc2ccccc2)c(=O)[nH]c1=O (stereo not drawn),5.4
12,CCOC(=O)C1CCN(C(=O)c2cc(COc3ccc(F)cc3F)on2)CC1,-26.3
13,Cc1cc(-c2ccccc2)nnc1NCCN1CCOCC1.Cl,-22.5
14,O=C(Cc1ccccc1)Nc1ccc(N2CCCCC2)cc1,-6.93
15,Cc1cc(=O)[nH]c(SCC(=O)Nc2ccc3c(c2)OCCO3)n1,8.83
16,CCc1ccccc1NC(=O)C1CCCN(c2nccc(C)n2)C1 (stereo not drawn),7.86
17,O=C(O)c1ccc(NC2=C(N3CCOCC3)C(=O)c3ccccc3C2=O)cc1,7.29
18,Cc1cc(O)cc(O[C@H]2OC(CO)[C@H](O)[C@@H](O)[C@H]2O)c1 (stereo partly drawn),9.81
19,O=S(=O)(CCSc1ccc(C(F)(F)F)cn1)c1ccc(Cl)cc1,13
20,COC(=O)C1=C(C)N(Cc2ccc(C)cc2)C(=O)C1,6.71
21,CCc1ccc(CN(C)C(=O)C2CCC(=O)N(Cc3cccc(OC)c3)C2)nc1 (stereo not drawn),-18.8
22,CC1CN(C(=O)c2cccc(C(=O)N3CC(C)OC(C)C3)c2)CC(C)O1 (stereo not drawn),19.1

row,SMILES,"hERG current change (%, negative = inhibition) at 10uM [%]"
1,C/C(=C\C(=S)Nc1ccccc1)Nc1cccc2ccccc12,13.3
2,Cc1ccc(C(=O)NC(=S)NCC2CCCO2)cc1Br (stereo not drawn),-5.22
3,CC(=O)SCC(Cc1ccccc1)C(=O)NCC(=O)OCc1ccccc1 (stereo not drawn),-12.9
4,Cc1ccc(NC(=O)/C=C/c2ccc([N+](=O)[O-])s2)cc1,8.76
5,O=c1c2ccccc2nc2n1CCc1c-2[nH]c2ccccc12,12
6,CCS(=O)(=O)Nc1ccc(C2=NN(C(=O)c3ccccc3)C(c3cccs3)C2)cc1 (stereo not drawn),4.84
7,Cc1ccsc1-c1ccnc(-n2cccc2)n1,11.6
8,CCCNC(=O)N[C@@H](Cc1ccccc1)C(=O)OC,-11.6
9,CN(C)C(=S)Nc1cccc(-c2n[nH]c(=S)o2)c1,13
10,Cc1ccc(CCNC(=O)C2CCN(S(=O)(=O)c3cccc4nsnc34)CC2)cc1,-1.48
11,Cc1cc(Cl)ccc1OC(C)C(=O)NN1C(=O)c2ccccc2C1=O (stereo not drawn),20.9
12,COc1ccc(CNC(=O)CN(C(=O)c2csnn2)c2cccc(C(C)=O)c2)cc1,-2.98
13,Cc1cccc(NC(=O)c2cc([N+](=O)[O-])ccc2NC2CCCCC2)c1,10.1
14,CC(C)[C@H](NC(=O)OCc1ccccc1)C(=O)NC(C=O)Cc1ccccc1 (stereo partly drawn) (Cbz-Val-[ξF]-aldehyde),7.65
15,Cc1cc(C)nc(NC(=O)C(C)N2C(=O)c3ccccc3C2=O)n1 (stereo not drawn),3.73
16,CC(CN(C)C)CN1c2ccccc2CCc2ccccc21.O=C(O)/C=C\C(=O)O (stereo not drawn),-37.2
17,O=C(NCCCn1ccnc1)c1ccc(S(=O)(=O)Nc2ccccc2)cc1,5.83
18,O=C(N/C(=C/c1ccc([N+](=O)[O-])cc1)C(=O)N1CCOCC1)c1ccco1,-70.1
19,Cc1c(C#N)c(NC(=O)C(C)C)n(Cc2ccccc2)c1C,5.79
20,CCN(C(=O)Cn1c([N+](=O)[O-])cnc1C)c1ccccc1,11.7
21,CCOC(=O)Cc1nc2ccccc2n(CC#N)c1=O,9.11
22,CCc1ccccc1NC(=O)CSc1nnc(Cn2cnc3ccccc32)o1,12.9

row,SMILES,"hERG current change (%, negative = inhibition) at 10uM [%]"
1,CCOc1ccc(NC(=O)CN2C(=O)C3CC=CCC3C2=O)cc1 (stereo not drawn),-6.32
2,COc1cccc(-n2cc(C(=O)O)c3ccccc3c2=O)c1,8.39
3,CS(=O)(=O)N(Cc1ccccc1)c1ccc(C(=O)Nc2ccccc2Sc2ccccc2)cc1,1.8
4,COc1ccc(NC(=O)CCc2nnc3ccc(N4CCC(C)CC4)nn23)cc1OC,-1.24
5,Cc1ccc(OCc2cc(C(=O)N(C)CCc3ccccc3)no2)cc1C,-7.84
6,CC(=O)N1c2ccc(S(=O)(=O)N3CCCC(C(=O)NCc4ccc(Cl)cc4)C3)cc2CC1C (stereo not drawn),-2.85
7,COc1ccc(C2=NN(C(=O)CSc3nc4ncc(Cl)cc4[nH]3)C(c3ccco3)C2)cc1 (stereo not drawn),-3.38
8,Cc1cc(NC(=O)CSc2nnc(Cc3cccn3C)n2CCc2ccccc2)no1,-4.06
9,S=C1NCN(C2CCCCC2)CN1Cc1ccccc1,4.52
10,O=C(NC1CC2CCC1C2)C1CCN(S(=O)(=O)c2ccc(-c3nn[nH]n3)cc2)CC1 (stereo not drawn),14.4
11,C#CC(CC)(CC)NC(=O)c1ccc(Br)s1,-3.64
12,COc1cc(S(=O)(=O)N(Cc2cccs2)C2CC2)ccc1-n1cnnn1,-29.2
13,Cc1cc(O)c(Sc2ncn[nH]2)cc1NS(=O)(=O)c1ccc(Cl)cc1,-2.65
14,CN(C)S(=O)(=O)c1ccc2oc(SCC(N)=O)nc2c1,9.69
15,Cn1nc(C(=O)NC2CCCc3ccccc32)ccc1=O (stereo not drawn),18.1
16,COc1cccc(OCCn2ccnc2)c1,-5.65
17,Cc1ccc2nc(SCc3nnc(-c4ccccc4Br)o3)[nH]c2c1,-6.41
18,CSCC(=O)N1CCC(n2nccc2NC(=O)c2ccc3c(c2)OCO3)CC1,-12.6
19,Cc1cccc(CCNC(=O)CC2C(=O)NCCN2CC2CCCCC2)n1 (stereo not drawn),20.9
20,Cc1cc(N/N=C/c2ccccc2O)c2ccccc2n1,-72.5
21,COCCCN(C(=O)CCOc1ccc(C(C)(C)C)cc1)c1c(N)n(Cc2ccccc2)c(=O)[nH]c1=O,-62.2
